Measurements: PubChem BioAssay AID686978 (National Center for Advancing Translational Sciences (NCATS), 2013)
The whole screen tested about 420,000 compounds, of which about 64,000 (15%) were called active. This list was built around the results that the source calls inconclusive (neither active nor inactive); the mix of calls is not that of the screen. The call rests on the fitted dose curve; in most records, active means well fitted inhibition curve with a large enough effect; inconclusive means small, poorly fitted or top-dose-only effect; inactive means flat fitted curve, though single readings scatter. Potencies of inconclusive entries are left out as doubtful fits. The source holds several records for some structures; these can differ, active in one and inactive in another.

experiment: qHTS for Inhibitors of human tyrosyl-DNA phosphodiesterase 1 (TDP1): qHTS in cells in absence of CPT; conditions: DT40 Tdp1-/- hTDP1 cells, no CPT, ATP luminescence, 48 h; activity change, negative = growth inhibition: at 46.2 µM (top of the series); further: nearly all actives have a fitted effect of over 55% in size
Method in brief: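 Luminescent ATP content (CellTiter-Glo) served as the growth readout. Knockout chicken DT40 cells expressing human TDP1 were exposed to compounds without camptothecin for a minimum 48 hr at 37 °C.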
On the % scale 0 is the no-effect control and ±100 the full control effect; potency means the concentration at half of the fitted maximal effect; tags describe the fitted curve by direction and shape.

Structure (SMILES) | Potency | activity change, negative = growth inhibition
CC(C)(CC(=O)N1CCN(c2ccc(Cl)cc2)CC1)CC1=NS(=O)(=O)c2ccccc2N1 | active: 11.6 µM | –
Cc1ccc(Nc2c(-c3ccccc3O)nc3cnccn23)cc1 | inconclusive [inhibitor, single point] | –
Cc1cc(OCCn2nc(C(=O)O)c3ccccc3c2=O)ccc1C(C)C | inconclusive [inhibitor, single point] | –
COc1ccc(-c2nc3cc(C)c(Br)c(C)n3c2Cc2ccc(C)cc2)cc1OC | inconclusive [inhibitor, single point] | –
CCCCn1c(N)c(N(CCC(C)C)C(=O)c2ccc3c(c2)OCO3)c(=O)[nH]c1=O | inactive | –
CCC1CN(C(=O)N2CCC(C(=O)Nc3ccccc3F)CC2)c2ccccc2O1 (stereo unspecified) | active: 23.1 µM | –
CCNC(=O)/C=C/c1cccc(Br)c1 | inconclusive [inhibitor, single point] | –
C=CCn1c(C)cc(-c2csc(NCC)n2)c1C | inconclusive [inhibitor, single point] | –
CCOC(=O)CNC(=O)N1CCc2ccc(NC(=O)c3ccccc3Cl)cc2C1 | active: 8.2 µM | –
Cc1cccc(CCNS(=O)(=O)c2ccc(S(=O)(=O)NC3CCCC3)cc2)c1 | inconclusive [inhibitor, single point] | –
N#Cc1ccc(/C=N/NC(=O)c2cc(-c3cccs3)nc3ccccc23)cc1 | active: 20.6 µM | –
COc1ccccc1CNC(=O)c1ccc2nc(N3CCCCC3)sc2c1 | inconclusive [inhibitor, single point] | –
COc1ccc2c(c1)OC(C)CN(CCC(=O)NCC1OCCc3ccccc31)C2 (stereo unspecified) | inactive | –
Cc1ccc(C)c(N2CCN(c3c(CN4CCCC4)c(=O)oc4ccccc34)CC2)c1 | active: 25.9 µM | –
O=c1[nH]c(C2CCCN(S(=O)(=O)c3ccccc3)C2)nc2c1nnn2Cc1ccccc1 (stereo unspecified) | inconclusive [inhibitor, single point] | –
Cc1cccc2c(N=O)c(O)n(CCc3ccccc3)c12 | inconclusive [inhibitor, single point] | –
O=c1[nH]cnc2cc(-c3ccccc3)sc12 | inconclusive [inhibitor, partial curve] | –
CCCC(=O)Nc1ccccc1OCc1cc(=O)n2cc(C)ccc2n1 | inconclusive [inhibitor, single point] | –
O=C(CSc1ncn[nH]1)N1CCN(c2nnc(-c3ccccc3)c3ccccc23)CC1 | inconclusive [inhibitor, single point] | –
CC(=O)Nc1ccc(S(=O)(=O)NC2Cc3ccccc3C2)cc1 | inconclusive [inhibitor, partial curve] | –
Cc1ccc(CCNC(=O)c2ccc3c(Cl)c4c(nc3c2)CCCC4)cc1 | active: 18.4 µM | –
Cc1ccc(S(=O)(=O)N(C)C)cc1NC(=S)NC(=O)C12CC3CC(CC(C3)C1)C2 | active: 8.2 µM | –
O=[N+]([O-])c1ccc(N2CCCC2)cc1N1CCCC1 | inconclusive [inhibitor, partial curve] | –
CCC(C)Sc1nc2c(c(=O)[nH]c(=O)n2C)n1C (stereo unspecified) | inactive | –

Structure (SMILES) | Potency | activity change, negative = growth inhibition
CC1CCCN(C(=O)CSc2nnc(-c3cccnc3)n2C2CCCCC2)C1 (stereo unspecified) | inactive | –
CN(Cc1cn(Cc2ccccc2)nc1-c1ccc2c(c1)OCO2)Cc1nccn1C | inconclusive [inhibitor, partial curve] | –
Cc1ccc(C(=O)NNC(=O)c2ccc(Br)s2)cc1S(=O)(=O)N1CCOCC1 | inconclusive [inhibitor, single point] | –
O=C(CN1CCCCCCC1)Nc1cccc(Cl)c1Cl | – | inconclusive: -35.9% [inhibitor]
O=C(Nc1cccc(Cl)c1Cl)c1cc(S(=O)(=O)NCc2ccc3c(c2)OCO3)ccc1F | inactive | –
Cc1ccc(S(=O)(=O)Nc2ccc3c(c2)C(=O)N([C@@H](C)CO)C[C@@H](C)[C@@H](CN(C)CC2CC2)OCCCC[C@@H](C)O3)cc1 | inconclusive [inhibitor, single point] | –
N#Cc1nc(COc2ccccc2Cl)oc1NCc1ccco1 | inconclusive [inhibitor, single point] | –
COC(=O)c1ccc(C(=O)OC)c(NC(=O)CN(C)Cc2ccc(Cl)c(Cl)c2)c1 | inconclusive [inhibitor, single point] | –
CCN(CC)S(=O)(=O)c1ccc(N2CCN(c3cccc(OC)c3)CC2)c([N+](=O)[O-])c1 | active: 8.2 µM | –
O=S1(=O)C[C@H](N2CCOCC2)[C@@H](COCc2ccccc2)N1 | inactive | –
COc1ccc(S(=O)(=O)N/N=C(/C)c2ccncc2)c(OC)c1 | inactive | –
Cc1ccc2cccc(O)c2n1 | active: 7.08 µM | –
O=c1c(CCc2ccccc2)nc2cnc(N3CCNCC3)nc2n1C1CC1 | inconclusive [inhibitor, single point] | –
CSCCC(=O)N(C)CC1CCCN(CCc2cccc(C(F)(F)F)c2)C1 (stereo unspecified) | inactive | –
CC(=O)Nc1cc(-c2ccc(S(C)(=O)=O)cc2)cn2c(-c3ccc(F)c(Cl)c3)cnc12 | active: 16.4 µM | –
N#Cc1ccc(-c2nc3ccc(Br)cn3c2Cc2cccc(F)c2)cc1 | inconclusive [inhibitor, single point] | –
O=C(c1cc(Cl)ccc1[N+](=O)[O-])N1CCc2ccccc2C1 | inactive | –
CC(CCc1ccc(O)cc1)NCc1ccc(Cl)cc1Cl (stereo unspecified) | active: 18.4 µM | –
O=C(Nc1cc(Cl)ccc1Oc1ccccc1)c1ccccc1F | inconclusive [inhibitor, single point] | –
Oc1cccc(/C=N/Nc2ccc(Cl)nn2)c1O | active: 0.13 µM | –
CN(CCc1ccccc1)C(=O)c1ccc(NC(=O)Cc2cccc(NC(=O)C3CCN(C(=O)CCc4ccccc4)CC3)c2)cc1 | inconclusive [inhibitor, single point] | –
Cc1ccc2[nH]c(=O)c(CN(CC3CCCO3)C(=O)c3ccncc3)cc2c1 (stereo unspecified) | inactive | –
Cc1cc(OCC(=O)N2CCN(c3ccccn3)CC2)c(C)cc1Br | inconclusive [inhibitor, single point] | –
NC(=S)Nc1cccc(O)c1 | inactive | –

Structure (SMILES) | Potency | activity change, negative = growth inhibition
CC1CCN(S(=O)(=O)c2ccc(C(=O)Nc3nnc(-c4ccccn4)o3)cc2)CC1 | inconclusive [inhibitor, single point] | –
CS(=O)(=O)N(CC(=O)Nc1ccc(S(=O)(=O)N2CCCC2)cc1)c1cccc(F)c1 | – | inconclusive: -32.5% [inhibitor]
CCCC1(c2ccccc2)NC(=O)N(CC(=O)Nc2sc(-c3ccccc3)cc2C(=O)OCC)C1=O (stereo unspecified) | inconclusive [inhibitor, single point] | –
Oc1ccccc1-c1nc(NCCN2CCOCC2)c2ccccc2n1 | inconclusive [inhibitor, partial curve] | –
CCc1ccc(S(=O)(=O)N(C(=O)c2ccncc2)c2ccc3oc(C)c(C(=O)OC)c3c2)cc1 | active: 2.59 µM | –
O=C(COc1ccc(S(=O)(=O)N2CCOCC2)cc1Cl)NCc1ccc2c(c1)OCO2 | inconclusive [inhibitor, single point] | –
CCC(C(=O)NCCCN1CCN(C)CC1)n1nc(C)c2sc3ccccc3c2c1=O (stereo unspecified) | inactive | –
COc1ccc(CC(=O)N2CCc3cc(OC)c(OC)cc3C2COc2cc(C)cc(C)c2)cc1OC (stereo unspecified) | active: 18.4 µM | –
Cc1cc(C)cc(OCC(=O)Nc2nc(-c3ccccn3)cs2)c1 | inconclusive [inhibitor, single point] | –
COc1cccc(Cn2c(Oc3cc(C)cc(C)c3)nc3c2c(=O)n(C)c(=O)n3C)c1 | inconclusive [inhibitor, single point] | –
COC(=O)c1c(N)sc2c1CCN(c1ncc(C(F)(F)F)cc1Cl)C2 | inconclusive [inhibitor, partial curve] | –
COC(=O)c1[nH]c2ccc(F)cc2c1NS(=O)(=O)c1ccc(F)c(C)c1 | inconclusive [inhibitor, single point] | –
Cc1ccc(C(CNS(=O)(=O)c2ccc(Br)cc2)N2CCN(C)CC2)cc1 (stereo unspecified) | inconclusive [inhibitor, single point] | –
O=C(CCNC(=O)c1ccc([N+](=O)[O-])cc1)N/N=C/c1ccc(F)cc1 | inconclusive [inhibitor, single point] | –
Cc1cc(C)c(S(=O)(=O)c2ccc(F)cc2C)c(=O)[nH]1 | inactive | –
O=C(Nc1ccc(-n2nncc2-c2ccco2)cc1)c1cccc(F)c1 | inconclusive [inhibitor, single point] | –
CCc1cccc(CC)c1N1C(=O)CC(Sc2ccccc2N)C1=O (stereo unspecified) | inconclusive [inhibitor, single point] | –
CN(C(=O)COC(=O)/C=C/c1ccc(Cl)c(Cl)c1)c1c(N)n(Cc2ccccc2)c(=O)[nH]c1=O | active: 16.4 µM | –
O=C(C(=O)N1CCCC1CO)N1CCCC1CO (stereo unspecified) | inactive | –
CC(C)C(NC(=O)c1ccc(Cl)cc1)C(=O)NCC1CCCO1 (stereo unspecified) | inactive | –
COc1ccc(N(C(=O)c2ccncc2)S(=O)(=O)c2cccs2)cc1 | inconclusive [inhibitor, single point] | –
CCOc1ccccc1-c1cc(C(=O)N2CCOCC2)c2ccccc2n1 | inactive | –
COc1cc(NC(=O)c2ccc(-c3csc(C)n3)cc2)c(OC)cc1Cl | inconclusive [inhibitor, single point] | –
